From patent US20170173112A1 (Daiichi Sankyo, published 2017)

B1: lipocalin mutein SEQ ID NO: 14 (designed binder)
chain: ASDEEIQDVSGTWYLKAMTVDFSRGDAIWTSVTPMTLTTLEGGNLEAKVTMMYAGRSQEVKAVLEKTDEPGKYTAMGGSHVAYITRSHVKDHYIFYSEGPHQGAPVPGVWLVGRDPKNNLEALEDFEKAAGARGLSTESILIPRQSETSSPGSAWSHPQFEK
notes: human tear lipocalin mutein
B2: lipocalin mutein SEQ ID NO: 15 (designed binder)
chain: ASDEEIQDVSGTWYLKAMTVDFSRGDAIWTSVTPMTLTILEGGNLEAKVTMMYAGRSQGVKVVLEKTDEPGKYTAMGGSQVAYIIRSHVKDHYIFYPEGPYQGAPVPGVWLVGRDPKNNLEALEDFEKAAGARGLSTESILIPRQSETSSPGSAWSHPQFEK
notes: human tear lipocalin mutein
B3: lipocalin mutein SEQ ID NO: 16 (designed binder)
chain: ASDEEIQDVSGTWYLKAMTVDFSRGDAIWTSVTPMTLTTLEGGNLEAKVTMMYAGRSQEVKAVLEKTDEPGKYTTMGGSHVAYIIRSHVKDHYIFYSEGPYQGAPVPGVWLVGRDPKNNLEALEDFEKAAGARGLSTESILIPRQSETSSPGSAWSHPQFEK
notes: human tear lipocalin mutein
B4: lipocalin mutein SEQ ID NO: 17 (designed binder)
chain: ASDEEIQDVSGTWYLKAMTVDFSRGDAIWTSVTPMTLTTLEGGNLEAKVTMMYAGRSQEVKAVLEKTDEPGKYTASGGSHVAYIIRSHVKDHYIFYSEGPHQGAPVPGVWLVGRDPKNNLEALEDFEKAAGARGLSTESILIPRQSETSSPGSAWSHPQFEK
notes: human tear lipocalin mutein
B5: lipocalin mutein SEQ ID NO: 18 (designed binder)
chain: ASDEEIQDVSGTWYLKAMTVDFSRGDAIWTSVTPMTLTALEGGGLEAKVTMMYAGRSQEVKVVLEKTDEPGKYTAMGGSHGAYITRSHVKDHYIFYSEGPYRGAPVPGVWLVGRDPKNNLEALEDFEKAAGARGLSTESILIPRQSETSSPGSAWSHPQFEK
notes: human tear lipocalin mutein
B6: lipocalin mutein SEQ ID NO: 19 (designed binder)
chain: ASDEEIQDVSGTWYLKAMTVDFSRGDAIWTSVTPMTLTTLEGGNMEAKVTMMYAGRSQEVKAVLEKTDEPGKYTAMGGSHVAYIIRSHVKDHYIFYSEGLYQGAPVPGVWLVGRDPKNNLEALEDFEKAAGARGLSTESILIPRQSETSSPGSAWSHPQFEK
notes: human tear lipocalin mutein
B7: lipocalin mutein SEQ ID NO: 21 (designed binder)
chain: ASDEEIQDVSGTWYLKAMTVDFSRGDAIWTSVTPMTLTTLEGGNLEAKVTMMYAGRSQEVKAVLEKTDEPGKYTAMGGSHVAYILRSHVKDHYIFYSEGPHQGAPVPGVWLVGRDPKNNLEALEDFEKAAGARGLSTESILIPRQSETSSPGSAWSHPQFEK
notes: human tear lipocalin mutein
B8: lipocalin mutein SEQ ID NO: 24 (designed binder)
chain: ASDEEIQDVSGTWYLKAMTVDRFKIASWPRSVTPMTLTTLEGGNLEAKVTMNWWGRSQEVKAVLEKTDEPGKYTAQGGSHVEYIIRSHVKDHYIFYSEGNLQGEPVPGVWLVGRDPKNNLEALEDFEKAAGARGLSTESILIPRQSETSSPGSAWSHPQFEK
notes: human tear lipocalin mutein
B9: lipocalin mutein SEQ ID NO: 23 (designed binder)
chain: ASDEEIQDVSGTWYLKAMTVDRFKIASWPRSVTPMTLTTLGGGNLEAKVTMNWWGRSQEVKAVLEKTDEPGKYTAQGGSHVEHIIRSHVKDHYIFYSKGNLQGEPVPGVWLVGRDPKNNLEALEDFEKAAGARGLSTESILIPRQSETSSPGSAWSHPQFEK
notes: human tear lipocalin mutein
B10: lipocalin mutein SEQ ID NO: 25 (designed binder)
chain: ASDEEIQDVSGTWYLKAMTVDRFKIASWPRSVTPMTLTTLEGGNLEAKVTMNWWGRSQDVKAVLGKTDEPGKYTAQGDSHVSYIIRSHVKDHYILYSVGNLQGETVPGVWLVGRDPKNNLEALEDFEKAAGARGLSTESILIPRQSETSSPGSAWSHPQFEK
notes: human tear lipocalin mutein
B11: lipocalin mutein SEQ ID NO: 26 (designed binder)
chain: ASDEEIQDVSGTWYLKAMTVDRFKIASWPRSVTPMTLTTLEGGNLEAKVTMNWWGRSQEVKAVLEKTDEPGKYTAVGGSHVAYIIRSHVKDHYIFYSEGKLQGEPVPGVWLVGRDPKNNLEALEDFEKAAGARGLSTESILIPRQSETSSPGSAWSHPQFEK
notes: human tear lipocalin mutein
B12: lipocalin mutein SEQ ID NO: 27 (designed binder)
chain: ASDEEIQDVSGTWYLKAMTVDRFKIGSWPRSVTPMTLTTLEGGNLEAKVTMNWRGRSQEVKAVLEKTDEPGKYTAQGGSHVAYIIRSHVKDHYIFYSEGKLQGEPVPGVWLVGRDPKNNLEALEDFEKAAGARGLSTESILIPRQSETSSPGSAWSHPQFEK
notes: human tear lipocalin mutein
B13: lipocalin mutein SEQ ID NO: 28 (designed binder)
chain: ASDEEIQDVSGTWYLKAMTVDRFKIGAWPRSVTPMTLTTLEGGNLEAKVTMNWWGRSQEVKAVLEKTDEPGKYTATGGSHVAYIIRSHVKDHYIFYSEGKLQGEPVPGVWLVGRDPKNNLEALEDFEKAAGARGLSTESILIPRQSETSSPGSAWSHPQFEK
notes: human tear lipocalin mutein
B14: lipocalin mutein SEQ ID NO: 11 (designed binder)
chain: ASDEEIQDVSGTWYLKAMTVDWRLDNELWTSVTPMTLTTLEGGNLEAKVTMMYAGRSQEVKAVLEKTDEPGKYTAQGGSHVAYIIRSHVKDHYIFYSEGPRNGAPVPGVWLVGRDPKNNLEALEDFEKAAGARGLSTESILIPRQSETSSPGSAWSHPQFEK
notes: human tear lipocalin mutein
B15: lipocalin mutein SEQ ID NO: 63 (designed binder)
chain: ASDEEIQDVSGTWYLKAMTVDFSRGDAIWTSVTPMTLTTLEGGNLEAKVTMMYAGRSQEVKAVLERTDEPGKYTVMGGSHVAYIIRSPVKDHYIFYSEGPGQGAPVPGVWLVGRDPKNNLEALEDFEKAAGARGLSTESILIPRQSETSSPGSAWSHPQFEK
B16: lipocalin mutein SEQ ID NO: 64 (designed binder)
chain: ASDEEIQDVSGTWYLKAMTVDFSRGDAIWTSVTPMTLTTLEGGNLEAKVTMMYAGRSQEVKAVLERTDEPGKYTVMGGSHVAYIIRSPVKDHYIFYSEGPRQGAPVPGVWLVGRDPKNNLEALEDFEKAAGARGLSTESILIPRQSETSSPGSAWSHPQFEK
B17: lipocalin mutein SEQ ID NO: 65 (designed binder)
chain: ASDEEIQDVSGTWYLKAMTVDFSRGDAIWTSVTPMTLTTLEGGNLEAKVTMMYAGRSQEVKAVLERTDEPGKYTTMGGSHVAYIIRSPVKDHYIFYSEGPAQGAPVPGVWLVGRDPKNNLEALEDFEKAAGARGLSTESILIPRQSETSSPGSAWSHPQFEK
B18: lipocalin mutein SEQ ID NO: 66 (designed binder)
chain: ASDEEIQDVSGTWYLKAMTVDFSRGDAIWTSVTPMTLTTLEGGNLEAKVTMMYAGRSQEVKAVLERTDEPGKYTVMGGSHVAYIIRSPVKDHYIFYSEGPDQGAPVPGVWLVGRDPKNNLEALEDFEKAAGARGLSTESILIPRQSETSSPGSAWSHPQFEK
B19: lipocalin mutein SEQ ID NO: 67 (designed binder)
chain: ASDEEIQDVSGTWYLKAMTVDFSRGDAIWTSVTPMTLTTLEGGNLEAKVTMMYAGRSQEVKAVLERTDEPGKYTMMGGSHVAYIIRSPVKDHYIFYSEGPVQGAPVPGVWLVGRDPKNNLEALEDFEKAAGARGLSTESILIPRQSETSSPGSAWSHPQFEK
B20: lipocalin mutein SEQ ID NO: 68 (designed binder)
chain: ASDEEIQDVSGTWYLKAMTVDFSRGDAIWTSVTPMTLTTLEGGNLEAKVTMMYAGRSQEVKAVLERTDEPGKYTVMGGSHVAYIIRSPVKDHYIFYSEGPPQGAPVPGVWLVGRDPKNNLEALEDFEKAAGARGLSTESILIPRQSETSSPGSAWSHPQFEK
B21: lipocalin mutein SEQ ID NO: 69 (designed binder)
chain: ASDEEIQDVSGTWYLKAMTVDFSRGDAIWTSVTPMTLTTLEGGNLEAKVTMMYAGRSQEVKAVLERTDEPGKYTVMGGSHVAYIIRSPVKDHYIFYSEGPKQGAPVPGVWLVGRDPKNNLEALEDFEKAAGARGLSTESILIPRQSETSSPGSAWSHPQFEK
B22: lipocalin mutein SEQ ID NO: 70 (designed binder)
chain: ASDEEIQDVSGTWYLKAMTVDFSRGDAIWTSVTPMTLTTLEGGNLEAKVTMMYAGRSQEVKAVLERTDEPGKYTTMGGSHVAYIIRSPVKDHYIFYSEGPRQGAPVPGVWLVGRDPKNNLEALEDFEKAAGARGLSTESILIPRQSETSSPGSAWSHPQFEK
B23: lipocalin mutein SEQ ID NO: 71 (designed binder)
chain: ASDEEIQDVSGTWYLKAMTVDFSRGDAIWTSVTPMTLTTLEGGNLEAKVTMMYAGRSQEVKAVLERTDEPGKYTVMGGSHVAYIIRSPVKDHYIFYSEGPLQGAPVPGVWLVGRDPKNNLEALEDFEKAAGARGLSTESILIPRQSETSSPGSAWSHPQFEK

molecular target: T1, human PCSK9 (SEQ ID NO: 34) containing a C-terminal FLAG tag (human, UniProt Q8NBP7 31-152; Q8NBP7 153-692); experiment: SPR (Biacore T200), hPCSK9-Bio captured, 1:1 model
T1 construct: Secreted from HEK293F cells; also called hPCSK9; hPCSK9 wt; not shown: C-terminal FLAG tag

How did the Kd turn out when B1 was run?
The Kd was 0.41 nM.

What about the koff of the same binder?
Its koff is 0.000105 s⁻¹.

What about the kon of the same binder?
The kon was 256000 M⁻¹ s⁻¹.

What does the source list for B2?
Kd: 0.38 nM; koff: 0.000107 s⁻¹; kon: 278000 M⁻¹ s⁻¹

For B3, which Kd is on record?
Its Kd is 0.51 nM.

And the koff?
Its koff is 0.000129 s⁻¹.

What about the kon of the same binder?
The kon was 255000 M⁻¹ s⁻¹.

How did the Kd turn out when B4 was run?
The Kd was 0.45 nM.

And the koff?
Its koff is 0.000111 s⁻¹.

And the kon?
Its kon is 249000 M⁻¹ s⁻¹.

Which Kd does the source give for B5 here?
Its Kd is 0.35 nM.

What about the koff of the same binder?
Its koff is 0.000111 s⁻¹.

What about the kon of the same binder?
The kon was 313000 M⁻¹ s⁻¹.

What does the source list for B6?
Kd: 0.53 nM; koff: 0.000132 s⁻¹; kon: 247000 M⁻¹ s⁻¹

Which results are given for B7?
Kd: 0.56 nM; koff: 0.000137 s⁻¹; kon: 245000 M⁻¹ s⁻¹

What does the source list for B8?
Kd: 0.31 nM; koff: 0.000115 s⁻¹; kon: 367000 M⁻¹ s⁻¹

How did the Kd turn out when B9 was run?
The Kd was 0.21 nM.

And the koff?
Its koff is 0.000176 s⁻¹.

And the kon?
The kon was 836000 M⁻¹ s⁻¹.

Which Kd does the source give for B10 here?
Its Kd is 0.24 nM.

What about the koff of the same binder?
Its koff is 0.000105 s⁻¹.

And the kon?
Its kon is 436000 M⁻¹ s⁻¹.

B11 was tested. Which Kd did it give?
Its Kd is 0.34 nM.

And the koff?
The koff was 0.00023 s⁻¹.

What about the kon of the same binder?
Its kon is 668000 M⁻¹ s⁻¹.

What does the source list for B12?
Kd: 0.42 nM; koff: 0.00031 s⁻¹; kon: 734000 M⁻¹ s⁻¹

What does the source list for B13?
Kd: 0.29 nM; koff: 0.000198 s⁻¹; kon: 684000 M⁻¹ s⁻¹

molecular target: T1, human PCSK9 (SEQ ID NO: 34) containing …; experiment: SPR (Biacore T200), biotinylated PCSK9 captured, 1:1 model

B14 was tested. Which Kd did it give?
Its Kd is 1.89 nM.

And the koff?
The koff was 8.9e-05 s⁻¹.

And the kon?
Its kon is 47000 M⁻¹ s⁻¹.

molecular target: T1, human PCSK9 (SEQ ID NO: 34) containing …; experiment: SPR (Biacore T200), biotinylated human PCSK9 captured, 1:1 model

B15 was tested. Which Kd did it give?
The Kd was 0.33 nM.

What about the koff of the same binder?
Its koff is 7.84e-05 s⁻¹.

And the kon?
The kon was 235000 M⁻¹ s⁻¹.

Which Kd does the source give for B16 here?
Its Kd is 0.22 nM.

And the koff?
Its koff is 7.25e-05 s⁻¹.

And the kon?
Its kon is 323000 M⁻¹ s⁻¹.

How did the Kd turn out when B17 was run?
The Kd was 0.32 nM.

What about the koff of the same binder?
Its koff is 7.61e-05 s⁻¹.

What about the kon of the same binder?
Its kon is 239000 M⁻¹ s⁻¹.

With B18 as the binder, how does the Kd read?
The Kd was 0.33 nM.

What about the koff of the same binder?
The koff was 8.17e-05 s⁻¹.

And the kon?
Its kon is 251000 M⁻¹ s⁻¹.

Which Kd does the source give for B19 here?
Its Kd is 0.31 nM.

And the koff?
The koff was 7.6e-05 s⁻¹.

What about the kon of the same binder?
Its kon is 249000 M⁻¹ s⁻¹.

What does the source list for B20?
Kd: 0.31 nM; koff: 8.03e-05 s⁻¹; kon: 263000 M⁻¹ s⁻¹

What does the source list for B21?
Kd: 0.29 nM; koff: 7.66e-05 s⁻¹; kon: 263000 M⁻¹ s⁻¹

Which Kd does the source give for B22 here?
Its Kd is 0.33 nM.

And the koff?
Its koff is 7.39e-05 s⁻¹.

What about the kon of the same binder?
Its kon is 223000 M⁻¹ s⁻¹.

What does the source list for B23?
Kd: 0.32 nM; koff: 8.81e-05 s⁻¹; kon: 272000 M⁻¹ s⁻¹
